The list shows a part of the results.
B1: PhoQ; a variant is named by its letters at X, in order, P23837 (parent)
chain: MKKLLRLFFPLSLRVRFLLATAAVVLVLSLAYGMVALIGYSVSFDKTTFRLLRGESNLFYTLAKWENNKLHVELPENIDKQSPTMTLIYDENGQLLWAQRDVPWLMKMIQPDWLKSNGFHEIEADVNDTSLLLSGDHSIQQQLQEVREDDDDAEMTHSVAVNVYPATSRMPKLTIVVVDTIPVELKSSYMVWSWFIYVLSANLLLVIPLLWVAAWWSLRPIEALAKEVRELEEHNRELLNPATTRELTSLVRNLNRLLKSERERYDKYRTTLTDLTHSLKTPLXXLQXXLRSLRSEKMSVSDAEPVMLEQISRISQQIGYYLHRASMRGGTLLSRELHPVAPLLDNLTSALNKVYQRKGVNISLDISPEISFVGEQNDFVEVMGNVLDNACKYCLEFVEISARQTDEHLYIVVEDDGPGIPLSKREVIFDRGQRVDTLRPGQGVGLAVAREITEQYEGKIVAGESMLGGARMEVIFGRQHSAPKDE

Variants of: B1
Assay: enrichment ratio after two sorts for PhoP signalling (ratio (wild type AVST 3.29)); higher = more functional
Settings: with PhoP (E. coli)

Variant | enrichment ratio
HGWH | ≤ 0.25
ENYH | ≤ 0.25
WHMR | ≤ 0.25
LPVQ | ≤ 0.25
TVRP | ≤ 0.25
VTSH | ≤ 0.25
SIDT | ≤ 0.25
RDHC | ≤ 0.25
QFHT | ≤ 0.25
HNME | ≤ 0.25
FYEQ | ≤ 0.25
TPCP | ≤ 0.25
MDHC | ≤ 0.25
TYVV | ≤ 0.25
PYVK | ≤ 0.25
LNYN | ≤ 0.25
WQPY | ≤ 0.25
GWQF | ≤ 0.25
PEKS | ≤ 0.25
NYNN | ≤ 0.25
GRTG | ≤ 0.25
WPVH | ≤ 0.25
PCIL | ≤ 0.25
KQKN | ≤ 0.25

Variant | enrichment ratio
AYTL | ≤ 0.25
SASV | 9.73
PTTA | ≤ 0.25
PNFI | ≤ 0.25
LKHV | ≤ 0.25
VWKM | ≤ 0.25
LQMD | ≤ 0.25
HSKG | ≤ 0.25
ISTT | ≤ 0.25
RIIQ | ≤ 0.25
ECAE | ≤ 0.25
GAHL | ≤ 0.25
VHIG | ≤ 0.25
TCTI | 17.1
QPNF | ≤ 0.25
WIMF | ≤ 0.25
VWQD | ≤ 0.25
LLMY | ≤ 0.25
EMPD | ≤ 0.25
LCYG | ≤ 0.25
KNGT | ≤ 0.25
YYRY | ≤ 0.25
WPTT | ≤ 0.25
KNRS | ≤ 0.25

Variant | enrichment ratio
NWDT | ≤ 0.25
NAHL | ≤ 0.25
DWVK | ≤ 0.25
NLIT | ≤ 0.25
EFVI | ≤ 0.25
QSPI | ≤ 0.25
MDYF | ≤ 0.25
MEKM | ≤ 0.25
IWRF | ≤ 0.25
DIYM | ≤ 0.25
IDCW | ≤ 0.25
EMWV | ≤ 0.25
VTNQ | ≤ 0.25
TYQV | 0.297
PQVS | ≤ 0.25
FWMW | ≤ 0.25
TNTN | 2.12
YNRN | ≤ 0.25
WRPG | ≤ 0.25
INCH | ≤ 0.25
PFFD | ≤ 0.25
PTTI | ≤ 0.25
ITAT | ≤ 0.25
GICC | 5.57

Variant | enrichment ratio
GALY | 9.22
FPEK | ≤ 0.25
ITGK | ≤ 0.25
MYDR | ≤ 0.25
IVHK | ≤ 0.25
WPTH | ≤ 0.25
FACY | ≤ 0.25
PDHW | ≤ 0.25
LSSE | ≤ 0.25
KMES | ≤ 0.25
IKEN | ≤ 0.25
RDPK | ≤ 0.25
QILF | ≤ 0.25
ILFK | ≤ 0.25
SLIY | ≤ 0.25
TDGC | 17.1
QQNR | ≤ 0.25
MLWD | ≤ 0.25
ERRW | ≤ 0.25
DQWQ | ≤ 0.25
QGTF | ≤ 0.25
LGNN | ≤ 0.25
GLEL | ≤ 0.25
CSFM | ≤ 0.25

Variant | enrichment ratio
HVVG | ≤ 0.25
GFIV | ≤ 0.25
MAWC | ≤ 0.25
NRWN | ≤ 0.25
NMSM | ≤ 0.25
RCCR | ≤ 0.25
YCPS | ≤ 0.25
IMYI | ≤ 0.25
KALS | ≤ 0.25
KPWH | ≤ 0.25
LFMP | ≤ 0.25
FPVY | ≤ 0.25
SKYG | ≤ 0.25
YINV | ≤ 0.25
NSGG | ≤ 0.25
MMMC | ≤ 0.25
TTMP | ≤ 0.25
ECNS | ≤ 0.25
MPVK | ≤ 0.25
WHGP | ≤ 0.25
PRSH | ≤ 0.25
MLFS | ≤ 0.25
HVCY | ≤ 0.25
WTWR | ≤ 0.25

Variant | enrichment ratio
DVPY | ≤ 0.25
SRTI | 0.799
NCHN | ≤ 0.25
PRHW | ≤ 0.25
TDSH | 10.4
RRNE | ≤ 0.25
AIVV | 10
TFYY | ≤ 0.25
INNC | ≤ 0.25
GRGG | ≤ 0.25
ASHL | 3.75
KKNH | ≤ 0.25
LYMM | ≤ 0.25
KGIS | ≤ 0.25
AQSC | 8.82
IQRQ | ≤ 0.25
MSWN | 8.63
AISW | 11.4
VSNN | ≤ 0.25
SGAH | 8.44
LTHF | 2.21
AWRS | ≤ 0.25
FIHM | ≤ 0.25
AVNF | 3.27

Variant | enrichment ratio
FFRI | ≤ 0.25
IYIS | ≤ 0.25
TMIE | ≤ 0.25
WPAY | ≤ 0.25
WNQM | ≤ 0.25
YTMS | ≤ 0.25
WMSA | ≤ 0.25
AFQR | ≤ 0.25
MSPG | ≤ 0.25
KYEL | ≤ 0.25
AQND | ≤ 0.25
YKKE | ≤ 0.25
APPC | ≤ 0.25
VGDR | ≤ 0.25
SYCA | ≤ 0.25
QCME | ≤ 0.25
SDVS | ≤ 0.25
SGYA | ≤ 0.25
INIP | ≤ 0.25
IEHL | ≤ 0.25
QMKL | ≤ 0.25
KEYW | ≤ 0.25
FTYP | ≤ 0.25
GPFD | ≤ 0.25

Variant | enrichment ratio
ARRW | ≤ 0.25
RSVT | ≤ 0.25
QHNN | ≤ 0.25
GRPF | ≤ 0.25
TCPI | ≤ 0.25
WRRH | ≤ 0.25
DDPR | ≤ 0.25
FESQ | ≤ 0.25
IRDY | ≤ 0.25
QNWK | ≤ 0.25
KVVA | ≤ 0.25
TLAD | ≤ 0.25
ERMG | ≤ 0.25
PEAS | ≤ 0.25
KQRY | ≤ 0.25
IAHG | ≤ 0.25
WHLY | ≤ 0.25
SHSR | ≤ 0.25
IMCE | ≤ 0.25
GDWE | ≤ 0.25
ARIS | ≤ 0.25
HFYE | ≤ 0.25
IYWL | 0.258
DKAA | ≤ 0.25

Variant | enrichment ratio
LASI | ≤ 0.25
NYLE | ≤ 0.25
SWNI | ≤ 0.25
SVSL | 7.94
FFDM | ≤ 0.25
DCYM | ≤ 0.25
HHHW | ≤ 0.25
VVCM | ≤ 0.25
LNMF | 0.285
LELC | 2.34
VKVC | ≤ 0.25
GIRD | ≤ 0.25
KHHW | ≤ 0.25
QTHH | ≤ 0.25
DGVH | ≤ 0.25
YYPT | ≤ 0.25
MTGT | ≤ 0.25
LEIH | ≤ 0.25
TAEL | 7.72
MEMS | 63.4
PKIN | ≤ 0.25
RAYS | ≤ 0.25
FSEE | ≤ 0.25
EPLI | ≤ 0.25

Variant | enrichment ratio
LVNC | ≤ 0.25
PNLW | ≤ 0.25
HRRP | ≤ 0.25
PCQR | ≤ 0.25
TFNF | ≤ 0.25
WYGR | ≤ 0.25
IHHK | ≤ 0.25
YLHG | ≤ 0.25
TSHG | 6.17
AFLS | 2.64
ETRG | ≤ 0.25
ESGF | ≤ 0.25
MGTE | ≤ 0.25
EGSL | ≤ 0.25
WSMK | ≤ 0.25
DIGK | ≤ 0.25
HKHA | ≤ 0.25
LVDE | ≤ 0.25
DDVN | ≤ 0.25
IAKI | ≤ 0.25
GALF | 8.62
QWIL | ≤ 0.25
RCDL | ≤ 0.25
VQWV | ≤ 0.25

Variant | enrichment ratio
GTDY | ≤ 0.25
NDYG | ≤ 0.25
VGGQ | ≤ 0.25
WIKY | ≤ 0.25
EVHD | ≤ 0.25
ESDM | ≤ 0.25
IRPK | ≤ 0.25
KLLQ | ≤ 0.25
KEDR | ≤ 0.25
VYPG | ≤ 0.25
LDLH | ≤ 0.25
HMTY | ≤ 0.25
PKMR | ≤ 0.25
FMCY | ≤ 0.25
EMTG | ≤ 0.25
IRKH | ≤ 0.25
TAGR | ≤ 0.25
LFWM | ≤ 0.25
KFCM | ≤ 0.25
SVNN | ≤ 0.25
RDEG | ≤ 0.25
EDKF | ≤ 0.25
VWFN | ≤ 0.25
FCLS | 3.55

Variant | enrichment ratio
WKFG | ≤ 0.25
FDIK | ≤ 0.25
YQFR | ≤ 0.25
QFIH | ≤ 0.25
EPTP | ≤ 0.25
MDCS | ≤ 0.25
IMPD | ≤ 0.25
ACSS | 10.5
DVCC | ≤ 0.25
FTYF | ≤ 0.25
DPIR | ≤ 0.25
YQDY | ≤ 0.25
GQID | ≤ 0.25
QVNI | ≤ 0.25
MFMN | ≤ 0.25
LCHT | ≤ 0.25
ATAP | ≤ 0.25
PEIC | ≤ 0.25
HHGA | ≤ 0.25
LWPM | ≤ 0.25
ITFN | ≤ 0.25
VDMG | ≤ 0.25
ISPL | ≤ 0.25
HCRV | ≤ 0.25

Variant | enrichment ratio
VAIP | ≤ 0.25
FNGQ | ≤ 0.25
DDAC | ≤ 0.25
VPYC | ≤ 0.25
RNIC | ≤ 0.25
AKDK | ≤ 0.25
WKIW | ≤ 0.25
GEGL | ≤ 0.25
TRTI | 8.37
ELWM | ≤ 0.25
EQLV | ≤ 0.25
LLLA | ≤ 0.25
VAKH | ≤ 0.25
CPPF | ≤ 0.25
VQER | ≤ 0.25
QTAL | 5.88
MAQM | ≤ 0.25
DAPD | ≤ 0.25

From a collection of fitness landscapes (doi:10.1126/science.1257360)
